Test results published in PubChem BioAssay AID1963576 (National Center for Advancing Translational Sciences (NCATS), 2024).
About 60 (0.1%) of roughly 46,000 compounds were called active. About 3% were inconclusive and are not listed. Calls follow the shape of the dose curve; as a rule, active = well fitted inhibition curve with a large enough effect; inconclusive = small, poorly fitted or top-dose-only effect; inactive = no such curve, though single readings can be large or run the other way. Some of the results follow.

Test: Primary qHTS assay for Inhibitors of ovarian cancer metastasis using an organotypic tumor microenvironment (TME) model. Also: nearly all actives have a fitted effect of over 65% in size.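 As to activity change, negative = inhibition: plate controls were DMSO wells for no effect and tomatine positive control wells for full effect.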
Details: SKOV3ip1-GFP adhesion/invasion on 3D omental model, fluorescence; series mostly up to 45.8 µM; activity change, negative = inhibition: at the top concentration
How it was run: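 qHTS, 4-pt dose (0.36-46 umol/L); SKOV3ip1-GFP, 1,200 cells/well, no FBS; primary omental fibroblast/mesothelial co-culture 48 h pre-grown; 2 h RT + 16 h 37 C; PBS wash, 4% PFA; GFP count 488/509 nm.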

Activity change, negative = inhibition, inactive:
Cc1ccc(-n2ncc3c(NC4CCCCCC4)ncnc32)cc1Cl 1.88%
Cc1ccc(-n2ncc(C(=O)NCc3ccco3)c2C2CCN(C(=O)OC(C)(C)C)CC2)c(C)c1 -5.04%
Cc1cccc(-c2nc3c4ccccc4nc(N4CCN(c5cc(C)ccc5C)CC4)n3n2)c1 1.03%
Cc1cccc(N2CCN(C(=O)CCn3c(=O)c4cccn4c4cccnc43)CC2C)c1 (stereo unspecified) 3.8%
O=C(Nc1cccc(Cl)c1)c1cc2c(=O)[nH]c3ccccc3c2s1 2.87%
Cc1nnc(N2CCCC(C(=O)NCCc3ccc(Cl)cc3)C2)c2nn(-c3ccccc3)c(C)c12 (stereo unspecified) -20.3%
O=C(Nc1ccc(-c2cn3cccnc3n2)cc1)c1cc(Br)ccc1Cl -21.8%
CCc1ccccc1NC(=O)c1cnc2sc(N3CCCC3)nn2c1=O -4.54%
COc1ccc(CN2C(=O)c3ccccc3C2C(=O)NCCc2ccccc2)c(OC)c1 (stereo unspecified) 4.85%
CC(C)CCNC(=O)CN1N=C(c2ccc(Cl)cc2)CCC1=O -10.3%
COc1cccc(N2CCN(C(=O)Cn3c(-c4cccs4)cc4ccccc43)CC2)c1 -0.581%
Cc1ccc(-c2nc(C)c(CCNS(=O)(=O)c3ccc(F)c(C(F)(F)F)c3)s2)cc1 -8.59%
O=C(Nc1cccc(C(F)(F)F)c1)c1cc2ccc3cccnc3c2[nH]1 1.02%
COc1ccc(CNc2oc(-c3ccc(COc4ccccc4C)o3)nc2C#N)cc1 -21.7%
CCN(Cc1ccccc1)C(=O)Cn1c(=O)n(-c2ccc(C)c(C)c2)c(=O)c2c(C)c(C)sc21 -1.35%
O=c1oc2ccccc2cc1-c1cn2cc(Cc3ccc(Cl)cc3)sc2n1 -11.6%
O=c1cc(-c2ccccc2)n2c(SCc3ccc(F)cc3)nnc2[nH]1 -27.5%
C[C@H](c1ccc(F)cc1CCCC(=O)O)N(c1cc(F)ccc1F)S(=O)(=O)c1ccc(Cl)cc1 -1.95%
Cc1ccc(C)c(OC(=O)CSc2nnc(CNC(=O)c3ccccc3)o2)c1 -5.48%
Cc1ccc(NC(=O)CSc2nc(-c3ccco3)cc(C(F)(F)F)n2)cc1 -3.53%
Cc1ccc(NC(=O)CN2C(=O)CCSc3ccc(S(=O)(=O)N4CCCC4)cc32)cc1C -1.48%
CCc1nc(Oc2cccc(F)c2)c2oc3ccccc3c2n1 -2.21%
COc1cc(C)cc2oc(=O)c(CC(=O)NCc3cccc(Cl)c3)c(C)c12 -26%
COC(=O)c1ccc(C2C(C(=O)Nc3ccccc3)=C(C)Nc3nc4ccccc4n32)cc1 (stereo unspecified) -12.4%
CCOc1ccc(-n2nc3ccc(NC(=O)COc4ccc(OC)cc4)cc3n2)cc1 -3.76%
CC(C)c1ccc(OC(=O)c2cc(-c3ccccc3)on2)cc1 6.13%
CCN(CC)c1ccc(NC(=O)CSc2nc(-c3cccs3)cc(C(F)(F)F)n2)cc1 -9.19%
Cc1cc2oc(C(=O)Nc3ccc(S(=O)(=O)N4CCCCCC4)cc3)cc(=O)c2cc1C -0.238%
Cc1ccc(C)c(Cn2c(C3CC(=O)N(c4ccccc4C)C3)nc3ccccc32)c1 (stereo unspecified) -1.55%
CC1=C(C(=O)Nc2ccccc2)C(c2cccn2C)n2ncnc2N1 (stereo unspecified) 9.92%
O=S(=O)(c1ccc2nc(N3CCN(c4cccc(Cl)c4)CC3)ccc2c1)N1CCCCC1 4.2%
Cc1ccc(CNC(=O)CSc2n[nH]c(-c3ccc(F)cc3)n2)cc1 -0.0431%
Cc1ccc(Cl)cc1N1CCN(Cc2nnc(-c3ccc4c(c3)OCO4)o2)CC1 0.475%
O=c1oc2c(CN3CCN(CCO)CC3)c(O)ccc2cc1-c1ccccc1 3.63%
Fc1ccc(-c2noc3ncnc(NCCCN4CCN(c5ccccc5)CC4)c23)cc1 -2.23%
COc1ccc(-c2nc3c(C#N)c[nH]n3c2NC2CCCC2)c(OC)c1 -9.42%
Cc1ccc(NC(=O)CCc2c(C)nc3cc(-c4ccccc4)nn3c2C)cc1F -24.9%
CCc1cc(C(=O)Nc2cnn(Cc3ccccc3C)c2)no1 14%
CCOC(=O)c1c(S(=O)(=O)N2CCCC(C(=O)Nc3cccc(C)n3)C2)c(C)n(C)c1C (stereo unspecified) 4.05%
CCOc1ccc(C2CC(=O)Nc3c2c(=O)nc(SCc2ccccc2C)n3C)cc1OC (stereo unspecified) -9.37%
O=C(Nc1sc2c(c1C(=O)NCC1CCCO1)CCC2)c1cc(=O)c2ccccc2o1 (stereo unspecified) 7.05%
COc1ccc(CNC(=O)C2CCN(c3nc4ccccc4[nH]3)CC2)cc1OC 1.53%
COCCCNc1oc(-c2ccc(COc3ccc(Cl)cc3)o2)nc1C#N 13.1%
COC(=O)c1ccc(OCC2c3cc(OC)c(OC)cc3CCN2C(=O)c2ccc(F)cc2)cc1 (stereo unspecified) -9.92%
Cc1ccc(NC(=O)CSc2nnc3scc(-c4ccccc4)n23)cc1 1.75%
Cc1ccc2c(=O)cc(C(=O)Nc3cccc(C(F)(F)F)c3)oc2c1C 0.173%
Cc1cccn2c(=O)c3cc(C(=O)NC(C)c4ccccc4)c(=N)n(CCCO)c3nc12 (stereo unspecified) 8.66%
CCOCCc1nn2c(=O)cc(COC(=O)C3CCCCC3)nc2s1 -0.891%
CCOC(=O)c1c(C)[nH]c(C)c1S(=O)(=O)N1CCCC(C(=O)N2CCN(c3ccccc3)CC2)C1 (stereo unspecified) -8.4%
Cc1c(CCOc2ccc(C(=O)O)cc2)c2cc(Cl)ccc2n1C(c1ccccc1)c1ccccc1 -5.26%
O=C(NCCCN1CCN(c2ccc(F)cc2)CC1)c1ccc2nc(Cc3ccccc3)oc2c1 -17.2%
CCOc1ccc(CN2CCc3nc(Nc4ccc(OC)cc4OC)ncc3C2)cc1 0.319%
CCSC1=NC2(CCN(C(=O)NC3CCCCC3)CC2)N=C1c1ccc(Cl)cc1 3.06%
S=C(NCc1ccc2c(c1)OCO2)N1CCN(c2ncnc3c2oc2ccccc23)CC1 -8.94% [at 92.2 µM]
COc1ccc(NC(=O)c2c(-c3ccc(C)cc3)nnc3ccccc23)c(OC)c1 -7.07%
Cc1ccccc1Cn1c(CN2CCC(C(=O)NCCc3ccccc3)CC2)cc2ccccc21 0.646%
CCN(CC)CCCNC(=O)c1nn(C)c2c1CS(=O)(=O)c1ccccc1-2 -1.76%
CCN1C(=O)c2ccccc2Sc2ccc(NC(=O)c3ccc(Cl)cc3)cc21 -8.59%
Cc1cccc(NS(=O)(=O)c2ccc3c(c2)C(C)(C)C(=O)N3C)c1 -10.1%
CCc1nn(Cc2ccc(Cl)cc2)c(=O)c2cc3cc(C)ccc3n12 -18%
CC(=O)Oc1cc2c(s1)CCN(C(C(=O)C1CC1)c1ccccc1F)C2 (stereo unspecified) 15.1%
CS(=O)(=O)N(Cc1ccco1)CC(O)Cn1c2ccccc2c2ccccc21 (stereo unspecified) -3.99%
CCOC(=O)N1CCc2c(sc(NCc3cc(OC)c(OC)cc3OC)c2C(=O)Nc2ccc(OCC)cc2)C1 3.67%
CCOC(=O)c1ccc(-c2ccc(/C=C(\C#N)C(=O)Nc3ccc(OCC)cc3)o2)cc1 2.16%
Cc1cccc(-c2nc(SCCCOc3ccc(Cl)c(C)c3)n3[nH]c(=O)cc3n2)c1 -8.28%

outcome, inactive:
CC(=O)c1ccc(N2C(=O)N(CC(=O)c3ccc(F)cc3)c3ccccc3S2(=O)=O)cc1
COc1cccc(C(=O)Nc2cccc(-c3cn4c(C)csc4n3)c2)c1OC
CCOc1ccc(-c2nn(CC(=O)NC3CCCC3)c3c2cnc2ccc(F)cc23)cc1
CC1=C(C(=O)Nc2ccc(C)cc2C)C(c2cccs2)n2nc(SCc3ccccc3Cl)nc2N1 (stereo unspecified)
CCn1cc(C(=O)N2CCN(c3ccccc3F)CC2)c(=O)c2cc(S(=O)(=O)N(C)C)ccc21
CCOC(=O)c1c(C)[nH]c(CCC(=O)NCc2ccc(N(C)C)cc2)c1C
Cc1cn2c(=O)cc(COC(=O)COc3ccccc3C)nc2s1
CCCSc1ncc(Cl)c(C(=O)Nc2c(C(=O)Nc3ccc(C)cc3)oc3ccccc23)n1
CC(=O)N1CCc2c(sc3nc(SCC(C)C)n(-c4ccc(F)c(Cl)c4)c(=O)c23)C1
Cc1ccc(NC(=O)Nc2nnc(N(C)Cc3ccccc3)s2)c(C)c1
CCN(CC)c1ccc(NS(=O)(=O)c2cc3[nH]c(=O)c(=O)[nH]c3cc2C)c(C)c1
COc1ccc(Cn2c(=O)c3oc4ccccc4c3n(CC(=O)Nc3ccc(F)cc3F)c2=O)cc1
Cc1ccc(Nc2nc(C)nc(N)c2S(=O)(=O)c2ccccc2)cc1
CCN(CC)c1ccc(-c2nc(-c3ccccc3C)no2)cc1[N+](=O)[O-]
Cc1cc(NC(=O)C2CCN(S(=O)(=O)c3ccc(Br)s3)CC2)ccc1Br
Cc1ccc2c(=O)cc(C(=O)Nc3sc4c(c3C(=O)NCc3cccnc3)CCCC4)oc2c1C
COc1ccc(S(=O)(=O)NCC(c2ccco2)N2CCOCC2)cc1OC (stereo unspecified)
COc1ccc(C(=O)NCC(c2ccc(N(C)C)cc2)N2CCc3ccccc32)c(OC)c1 (stereo unspecified)
COc1cccc(NC(=O)CC2NCCNC2=O)c1 (stereo unspecified)
COc1ccc(Cn2c(=O)c3oc4ccccc4c3n(Cc3ccc(Cl)cc3)c2=O)cc1
CCCCCNC(=O)CCCCCn1c(=O)[nH]c2ccsc2c1=O
O=C(Cn1nnc(-c2ccccc2Cl)n1)Nc1ccc(Br)cc1
COc1ccc2c(c1)c1c(c(=O)n(-c3ccc(F)c(Cl)c3)c(=O)n1Cc1ccccc1C)n2C
Cc1ccc2sc(NC(=O)c3ccc4c(c3)OCCO4)nc2c1C
CCN(CC)c1nc2ccccc2nc1C(=O)Nc1cccc(C(C)=O)c1
COc1ccc2c(c1)c1c(c(=O)n(CCc3ccccc3)c(=O)n1Cc1ccc(F)cc1)n2C
CCC(=O)Nc1cccc(C(=O)OCc2cc(=O)n3nc(CC)sc3n2)c1
Cc1oc2ncn(C)c(=O)c2c1C(=O)N1CCN(c2ccccc2F)CC1
Cc1ccc(NC(=O)c2sc3nc4c(cc3c2N)CN(Cc2ccccc2)CC4)cc1
CCN(CC)C(=O)Cn1cc(SCC(=O)Nc2ccccc2C)c2ccccc21
CCc1ccc(-n2c(=O)c3cccnc3n2CC(=O)Nc2cc(F)ccc2F)cc1
